# Read-outs that look alike come from different tables or passages of the source. At least one compound was matched to its structure with a doubt left.
# Legend:
# [1] = target: GLP-1R (Homo sapiens, UniProt P43220); assay: HitHunter cAMP assay (GLP-1R); format: cell-based
# Method: (§1) Suspension cells were harvested and resuspended in 1×HBSS (+10 mM HEPES, 625 μM IBMX, 0.2% BSA) according to the following procedure: 5 μL of 2× cell suspension+1× antibody were added to each well, where the optimal cell density was 10,000 cells per well in a low volume 384-well plate. Agonist serial dilutions in a separate 384 well dilution plate in a 22-point series of 2× dilutions of agonist in DMSO were performed as follows. 80 μL of the highest concentration of Agonist/DMSO was added to well No. 1. 40 μL was removed from well No. 1 and added it to well No. 2, followed by gentle mixing. […] This process was repeated until well No. 22. Additional serial dilutions for additional agonists were set up in a similar manner. 50 nL of each 2× agonist serial dilution was added in duplicate to the designated agonist rows of the assay plate using the Labcyte ECHO. Assay plate was incubated for 30 minutes at room temperature. Following agonist incubation, 5 μL of cAMP Antibody Reagent was added to all wells. […] Plates were spun down briefly. Assay plate was incubated for 1 hour at room temperature in the dark for the immunocompetition reaction to occur. […] Plates were spun down briefly. Assay plate was incubated O/N at room temperature in the dark. Samples were read on Tecan i-control plate reader using luminescence mode with 300 ms integration time. Data analysis was performed using GraphPad Prism.
# [2] = target: T1, GIP-R (Homo sapiens, UniProt P48546); assay: HitHunter cAMP assay (GIP-R); format: cell-based
# T1 sequence (P48546 22-466): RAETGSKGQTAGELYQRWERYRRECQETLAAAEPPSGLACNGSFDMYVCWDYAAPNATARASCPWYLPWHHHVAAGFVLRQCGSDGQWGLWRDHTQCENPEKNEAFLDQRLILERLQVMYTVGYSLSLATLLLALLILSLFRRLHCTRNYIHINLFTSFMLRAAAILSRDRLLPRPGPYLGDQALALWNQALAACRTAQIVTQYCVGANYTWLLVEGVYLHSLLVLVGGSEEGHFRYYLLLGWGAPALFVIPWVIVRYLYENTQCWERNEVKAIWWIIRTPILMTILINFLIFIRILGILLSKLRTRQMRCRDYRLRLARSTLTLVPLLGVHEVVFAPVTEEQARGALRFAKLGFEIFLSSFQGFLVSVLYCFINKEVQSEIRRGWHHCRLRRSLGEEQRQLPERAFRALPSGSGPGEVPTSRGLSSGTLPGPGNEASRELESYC
# Method: as §1
# [3] = read-out: EC50 GLP-1R/nM, Table 3
# [4] = read-out: EC50 GLP-1R/nM, Table 3A
# [5] = read-out: EC50 GIP-R/nM, Table 3
# Chain of GLP-1R (P43220 24-463): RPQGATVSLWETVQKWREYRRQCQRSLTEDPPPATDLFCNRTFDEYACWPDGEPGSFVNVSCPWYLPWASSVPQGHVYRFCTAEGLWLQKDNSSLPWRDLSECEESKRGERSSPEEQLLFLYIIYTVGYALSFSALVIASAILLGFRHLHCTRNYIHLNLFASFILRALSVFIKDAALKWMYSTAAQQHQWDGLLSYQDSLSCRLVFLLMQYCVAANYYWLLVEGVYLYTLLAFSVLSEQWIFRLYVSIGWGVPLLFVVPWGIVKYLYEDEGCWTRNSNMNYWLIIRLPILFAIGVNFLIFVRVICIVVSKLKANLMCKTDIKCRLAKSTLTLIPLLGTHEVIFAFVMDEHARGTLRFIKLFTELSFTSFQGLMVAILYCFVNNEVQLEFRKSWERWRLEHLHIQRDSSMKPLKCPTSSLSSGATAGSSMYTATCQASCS
SMILES,"EC50 ([1]; Table 3A, read-out: EC50 GLP-1R/nM)","EC50 [1, 3]","EC50 [1, 4]","EC50 [2, 5]","EC50 ([2]; read-out: EC50 GIP-R/nM, Table 3A)"
"CCCCCCCCCCCCCCCC(=O)N[C@@H](CCC(=O)NCCCC[C@H](NC(=O)[C@H](CO)NC(=O)[C@@H]1CCCN1C(=O)[C@@H]1CCCN1C(=O)[C@@H]1CCCN1C(=O)[C@H](C)NC(=O)CNC(=O)[C@H](CO)NC(=O)[C@H](CO)NC(=O)[C@@H]1CCCN1C(=O)CNC(=O)CNC(=O)[C@H](C)NC(=O)[C@H](CC(C)C)NC(=O)[C@H](CC(C)C)NC(=O)[C@H](Cc1c[nH]c2ccccc12)NC(=O)[C@H](CC(N)=O)NC(=O)[C@@H](NC(=O)[C@H](Cc1ccccc1)NC(=O)[C@H](CCC(=O)O)NC(=O)C(C)(C)NC(=O)[C@H](C)NC(=O)[C@H](C)NC(=O)[C@H](CCC(N)=O)NC(=O)[C@H](CCCCN)NC(=O)[C@H](CC(=O)O)NC(=O)[C@H](CC(C)C)NC(=O)[C@H](Cc1ccc(O)cc1)NC(=O)[C@@H](NC(=O)[C@H](CO)NC(=O)[C@H](Cc1ccc(O)cc1)NC(=O)[C@H](CC(=O)O)NC(=O)[C@H](CO)NC(=O)[C@@H](NC(=O)[C@H](Cc1ccccc1)NC(=O)[C@@H](NC(=O)CNC(=O)[C@](C)(CCC(=O)O)NC(=O)CSCC(=O)NCCN1CCCCC1=O)[C@@H](C)O)[C@@H](C)O)[C@@H](C)CC)C(C)C)C(N)=O)C(=O)O (single isomer, unassigned) [Compound 220]",1 to 10 nM,,,,
"CCCCCCCCCCCCCCCC(=O)N[C@@H](CCC(=O)NCCCC[C@H](NC(=O)[C@H](CO)NC(=O)[C@@H]1CCCN1C(=O)[C@@H]1CCCN1C(=O)[C@@H]1CCCN1C(=O)[C@H](C)NC(=O)CNC(=O)[C@H](CO)NC(=O)[C@H](CO)NC(=O)[C@@H]1CCCN1C(=O)CNC(=O)CNC(=O)[C@H](C)NC(=O)[C@H](CC(C)C)NC(=O)[C@H](CC(C)C)NC(=O)[C@H](Cc1c[nH]c2ccccc12)NC(=O)[C@H](CC(N)=O)NC(=O)[C@@H](NC(=O)[C@H](Cc1ccccc1)NC(=O)[C@H](CCC(=O)O)NC(=O)C(C)(C)NC(=O)[C@H](C)NC(=O)[C@H](C)NC(=O)[C@H](CCC(N)=O)NC(=O)[C@H](CCCCN)NC(=O)[C@H](CC(=O)O)NC(=O)[C@H](CC(C)C)NC(=O)[C@H](Cc1ccc(O)cc1)NC(=O)[C@@H](NC(=O)[C@H](CO)NC(=O)[C@H](Cc1ccc(O)cc1)NC(=O)[C@H](CC(=O)O)NC(=O)[C@H](CO)NC(=O)[C@@H](NC(=O)[C@H](Cc1ccccc1)NC(=O)[C@@H](NC(=O)CNC(=O)[C@H](CCC(=O)O)NC(=O)CSCC(=O)NCCN1C(=O)C[C@H](CC)C1=O)[C@@H](C)O)[C@@H](C)O)[C@@H](C)CC)C(C)C)C(N)=O)C(=O)O (single isomer, unassigned) [Compound 62]",,1 to 10 nM,1 to 10 nM,1 to 10 nM,1 to 10 nM
"CCCCCCCCCCCCCCCC(=O)N[C@@H](CCC(=O)NCCCC[C@H](NC(=O)[C@H](CO)NC(=O)[C@@H]1CCCN1C(=O)[C@@H]1CCCN1C(=O)[C@@H]1CCCN1C(=O)[C@H](C)NC(=O)CNC(=O)[C@H](CO)NC(=O)[C@H](CO)NC(=O)[C@@H]1CCCN1C(=O)CNC(=O)CNC(=O)[C@H](C)NC(=O)[C@H](CC(C)C)NC(=O)[C@H](CC(C)C)NC(=O)[C@H](Cc1c[nH]c2ccccc12)NC(=O)[C@H](CC(N)=O)NC(=O)[C@@H](NC(=O)[C@H](Cc1ccccc1)NC(=O)[C@H](CCC(=O)O)NC(=O)C(C)(C)NC(=O)[C@H](C)NC(=O)[C@H](C)NC(=O)[C@H](CCC(N)=O)NC(=O)[C@H](CCCCN)NC(=O)[C@H](CC(=O)O)NC(=O)[C@H](CC(C)C)NC(=O)[C@H](Cc1ccc(O)cc1)NC(=O)[C@@H](NC(=O)[C@H](CO)NC(=O)[C@H](Cc1ccc(O)cc1)NC(=O)[C@H](CC(=O)O)NC(=O)[C@H](CO)NC(=O)[C@@H](NC(=O)[C@H](Cc1ccccc1)NC(=O)[C@@H](NC(=O)CNC(=O)[C@H](CCC(=O)O)NC(=O)CSCC(=O)NCCN1C(=O)[C@@H](C)[C@H](C)C1=O)[C@@H](C)O)[C@@H](C)O)[C@@H](C)CC)C(C)C)C(N)=O)C(=O)O (single isomer, unassigned) [Compound 63]",,1 to 10 nM,1 to 10 nM,1 to 10 nM,
